# Several values for one entry are separate records, joined by “and”; a condition that tells them apart may be missing. Equal values may be shown once. The inconclusive results got no clear call from the source; some entries with a clear call stand among them for comparison. Potencies beside an inconclusive call are fits to weak or partial responses and may not hold up. Activity calls are given as the source filed them. The call rests on the fitted dose curve; in most records, active means well fitted curve in the direction sought with a large enough effect in the repeat runs; inconclusive means weak or mixed curves; inactive means no such curve, though single readings can be large; an effect the other way counts as inactive or inconclusive.
# Biological target: Cytochrome P450 2D6 (Homo sapiens) (UniProt P10635)
# Sequence of UniProt P10635 (P10635 whole entry, looked up): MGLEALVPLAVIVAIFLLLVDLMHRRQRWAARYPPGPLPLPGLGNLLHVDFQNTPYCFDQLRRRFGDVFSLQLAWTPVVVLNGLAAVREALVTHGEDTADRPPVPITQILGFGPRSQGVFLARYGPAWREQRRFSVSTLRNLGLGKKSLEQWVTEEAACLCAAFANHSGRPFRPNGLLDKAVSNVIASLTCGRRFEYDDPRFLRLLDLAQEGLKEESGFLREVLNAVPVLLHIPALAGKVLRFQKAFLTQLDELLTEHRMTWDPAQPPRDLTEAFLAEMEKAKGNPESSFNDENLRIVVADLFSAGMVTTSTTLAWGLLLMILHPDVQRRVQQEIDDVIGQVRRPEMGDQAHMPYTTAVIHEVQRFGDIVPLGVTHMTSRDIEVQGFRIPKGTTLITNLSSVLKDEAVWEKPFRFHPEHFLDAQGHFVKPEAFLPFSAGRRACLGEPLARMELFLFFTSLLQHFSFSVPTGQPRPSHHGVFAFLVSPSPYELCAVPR
# Experiment: Cytochrome P450 family 2 subfamily D member 6 (CYP2D6) small molecule antagonists: luciferase biochemical (cell-free) qHTS assay (AID 1645840)
# Conditions: P450-Glo CYP2D6 enzyme, luciferin luminescence, 1 h; series mostly up to 57.4 µM
# In short: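 P450-Glo luminescent screen: recombinant CYP2D6 enzyme–proluciferin substrate mix preincubated with compound 10 min at room temperature, then NADPH regeneration added for 1 h at room temperature. Detection reagent added for 20 min; luciferin light read as relative luminescence units.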
# Further: nearly all actives have a fitted effect of over 55% in size.
# Potency means the concentration at half of the fitted maximal effect; tags describe the fitted curve by direction and shape.
row,Compound,Potency
1,COc1ccc(-c2nc3ccc(C4=NNC(=O)CC4C)cc3[nH]2)cc1 (configuration not stated),inactive
2,COC[C@@H](c1ccc(C(F)(F)F)cc1)N1CCN(C2(C)CCN(C(=O)c3c(C)ncnc3C)CC2)C[C@H]1C,"inconclusive: 34.7 µM [inhibitor, single point]"
3,CC(C)OC(=O)C(C(=O)OC(C)C)=C1SC=CS1,"inconclusive: 21.9 µM [inhibitor, single point]"

# Biological target: Cytochrome P450 2C9 (Homo sapiens) (UniProt P11712)
# Sequence of UniProt P11712 (P11712 whole entry, looked up): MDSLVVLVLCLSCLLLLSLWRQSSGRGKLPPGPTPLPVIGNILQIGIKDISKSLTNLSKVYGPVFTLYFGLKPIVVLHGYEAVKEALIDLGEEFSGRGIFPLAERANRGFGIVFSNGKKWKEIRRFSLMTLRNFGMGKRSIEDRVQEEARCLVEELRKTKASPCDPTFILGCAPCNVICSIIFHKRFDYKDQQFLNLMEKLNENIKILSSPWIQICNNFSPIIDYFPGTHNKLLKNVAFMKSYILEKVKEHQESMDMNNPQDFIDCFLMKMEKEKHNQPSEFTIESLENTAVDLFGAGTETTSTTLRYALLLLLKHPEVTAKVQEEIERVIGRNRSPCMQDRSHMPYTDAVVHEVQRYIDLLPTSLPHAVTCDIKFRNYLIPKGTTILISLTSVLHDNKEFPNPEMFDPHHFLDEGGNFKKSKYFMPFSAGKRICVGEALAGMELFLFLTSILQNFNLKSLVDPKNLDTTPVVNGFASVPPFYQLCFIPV
# Experiment: Cytochrome P450 family 2 subfamily C member 9 (CYP2C9) small molecule antagonists: luciferase biochemical (cell-free) qHTS assay (AID 1645842)
# Conditions: P450-Glo CYP2C9 enzyme assay, luciferin luminescence; series mostly up to 57.4 µM
# In short: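 Luminescence, after 20 min with luciferin detection reagent, reflected CYP2C9 turnover during a 1 h NADPH-driven reaction at 37C. Enzyme-substrate mix contained 0.4% bovine serum albumin and was preincubated with compound 10 min at room temperature.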
row,Compound,Potency
1,Cc1ccc(C(=O)c2cc(O)c(O)c([N+](=O)[O-])c2)cc1,active: 5.49 µM
2,COc1ccc(-c2nc3ccc(C4=NNC(=O)CC4C)cc3[nH]2)cc1 (configuration not stated),"inconclusive: 19.5 µM [inhibitor, partial curve]"
3,CN(C)C(=O)C(CCN1CCC(O)(c2ccc(Cl)cc2)CC1)(c1ccccc1)c1ccccc1,"inconclusive: 38.9 µM [inhibitor, partial curve, poor fit] and inconclusive: 5.35 µM [inhibitor, partial curve]"
4,CC(C)OC(=O)C(C(=O)OC(C)C)=C1SC=CS1,"inconclusive: 30.9 µM [inhibitor, single point]"

# — PubChem BioAssay (NCATS)
